PubChem BioAssay AID2202238 (Ras Initiative Chemistry Research Team, Frederick National …, 2025)
This is one part of the list. Further columns of the screen follow, without active or inactive calls.

Molecular target: GTPase KRas (Homo sapiens) (UniProt P01116)
Experiment: Cysteine mutants labelled by reactive fragments (mass read-out) (AID 2202238)
Design: protein at 5 µM with 500 µM competing thiol for 1.5 h
Conditions: KRAS G12D cysteine mutants, disulfide tethering, MALDI-TOF labeling, stronger effect = higher value, fragment at 500 µM
[1] = measured here: G75C mutant labeling
[2] = measured here: H94C mutant labeling
[3] = measured here: I36C mutant labeling
[4] = measured here: L120C mutant labeling
[5] = measured here: M67C mutant labeling
[6] = measured here: M72C mutant labeling
[7] = measured here: N86C mutant labeling
[8] = measured here: P121C mutant labeling
[9] = measured here: S122C mutant labeling
[10] = measured here: S136C mutant labeling
[11] = measured here: G60C mutant labeling
[12] = measured here: N26C mutant labeling

UniProt P01116, sequence (P01116 whole entry, looked up, the tested form may be a part): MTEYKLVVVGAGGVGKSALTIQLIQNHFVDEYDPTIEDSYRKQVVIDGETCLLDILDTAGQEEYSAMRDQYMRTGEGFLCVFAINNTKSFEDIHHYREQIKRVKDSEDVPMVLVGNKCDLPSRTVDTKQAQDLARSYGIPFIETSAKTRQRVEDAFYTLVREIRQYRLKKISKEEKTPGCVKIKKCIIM

Structure (SMILES) | percent labeling [1] [%] | percent labeling [2] [%] | percent labeling [3] [%] | percent labeling [4] [%] | percent labeling [5] [%] | percent labeling [6] [%] | percent labeling [7] [%] | percent labeling [8] [%] | percent labeling [9] [%] | percent labeling [10] [%] | percent labeling [11] [%] | percent labeling [12] [%]
Cc1ccc(C2CCC(NC(=O)CCS)CC2)cc1 (centres undefined) | 8.3 | 22.5 | 19.3 | 20 | 13.6 | 31.6 | 10 | 15 | 13.6 | 33.1 |  | 
O=C(CCS)NC1(Cc2ccccc2F)CCCCC1 | 7.2 | 18.3 | 22.8 | 14.6 | 12.7 | 48.8 | 18.4 | 13.8 | 11.2 | 28.7 |  | 
Cc1c(NC(=O)CCS)cnn1CC(F)F | 10.4 | 28.4 | 35.8 | 26.1 | 30.8 | 16.2 | 17.9 | 35.4 | 40.2 | 48.7 |  | 
O=C(NCCS)c1ccc(-n2cccn2)c(F)c1 | 13.3 | 10 | 9.6 | 16.1 | 9 | 40.4 | 11.5 | 14.3 | 9.7 | 17.5 | 29.2 | 28.7
O=C(Cn1c2ccccc2c(=O)c2ccccc21)NCCS | 4.2 | 10.2 | 10.9 | 43.4 | 8.2 | 20.8 | 7.9 | 8 | 6.1 | 15.3 | 10.8 | 11.5
CCOC(=O)C12CC(C)(C1)OC21CCN(C(=O)CCS)CC1 | 11.6 | 32.4 | 31.5 | 23.9 | 40.6 | 23.1 | 21.4 | 26.4 | 29.8 | 52.7 |  | 
CC1(C)CN(C(=O)CCS)c2cc(F)ccc21 | 24.5 | 38.9 | 25.4 | 13.9 | 13.9 | 40.8 | 25.7 | 15.7 | 12 | 35.6 |  | 
Cn1nc(C(F)(F)F)cc1-c1ccc(NC(=O)CCS)cc1 | 14.4 | 13 | 16.7 | 8.7 | 11 | 37.9 | 14.5 | 12.2 | 7 | 15.6 |  | 
CN1CCN(C(=O)CCS)CCC12CCOCC2 | 6.8 | 26.8 | 36.2 | 25.8 | 35.6 | 7.3 | 11 | 27.1 | 28 | 46.4 |  | 
CCC(=O)Nc1cccc(NC(=O)CCS)c1C | 9.3 | 25.6 | 30.1 | 32.7 | 27 | 21 | 25.8 | 31 | 37.1 | 48.7 |  | 
O=C(Cn1cccc(C(F)(F)F)c1=O)NCCS | 12.3 | 30.5 | 24.9 | 53.3 | 21.6 | 18.5 | 38 | 34 | 27.7 | 32.8 | 29.3 | 37
CC(=O)NCC1CCn2ncc(C(=O)NCCS)c2C1 (centres undefined) | 12.1 | 37.1 | 26.2 | 39.4 | 36.9 | 24.6 | 27 | 29.3 | 32.1 | 44.6 | 27.5 | 42.3
O=C(Cc1cnn(Cc2ccccc2)c1)NCCS | 9.5 | 30.9 | 28.9 | 34.1 | 47.9 | 24.5 | 18.7 | 37.4 | 26.8 | 41.7 | 33.9 | 32.4
Cc1nn(C)c(C)c1C(CC(=O)NCCS)C(F)(F)F (centres undefined) | 13.5 | 34.8 | 36.2 | 30.3 | 34.6 | 23.5 | 24.7 | 39.8 | 25.7 | 37.4 | 62.2 | 30
O=C(CC(n1ccnc1)C(F)(F)F)NCCS (centres undefined) | 9.5 | 28.4 | 34.3 | 25.1 | 33.6 | 0 | 0 | 29.3 | 36.6 | 0 | 36.7 | 38.8
O=C(CCS)N1CC2C(C(F)(F)F)(C1)CS2(=O)=O (centres undefined) | 6.3 | 29.8 | 34.3 | 32.3 | 34.5 | 20.9 | 35.3 | 32.9 | 35 | 43.8 |  | 
O=C(NCCS)C(c1ccccc1)n1cccn1 (centres undefined) | 20.8 | 32.7 | 30 | 52.4 | 32.7 | 30.2 | 23.2 | 35.8 | 34.2 | 62.4 | 44.8 | 39.1
O=C(NCCS)c1c[nH]c(=O)c(Br)c1 | 17.3 | 31.9 | 38 | 35.2 | 38.8 | 51.8 | 28.2 | 30.4 | 39.2 | 51.1 |  | 
CCOc1ncc(C(=O)NCCS)cc1Cl | 11.6 | 11.4 | 9.7 | 15.2 | 8.9 | 23.6 | 5.1 | 11.2 | 8.6 | 19.5 | 32.3 | 28.7
O=C(NCCS)C(Oc1ccc(Br)cc1Cl)c1ccccc1 (centres undefined) | 20.5 | 25 | 9.6 | 25.1 | 5.3 | 46 | 6.7 | 16.5 | 4.4 | 20.1 | 53.4 | 32.1
Cc1cc2c(o1)CC(C)(C)CC2NC(=O)CCS (centres undefined) | 17.6 | 29.1 | 22.8 | 15.6 | 22.5 | 19.9 | 6.8 | 24.3 | 19.3 | 40.9 |  | 
CC(=O)NC(CC(=O)NCCS)c1ccc(F)cc1F (centres undefined) | 18 | 37.1 | 32.6 | 41.7 | 37.6 | 23.9 | 33 | 44.3 | 35 | 39.9 | 52.3 | 44.9
CCc1nn(C)c(OC)c1CNC(=O)CCS | 10.2 | 24.8 | 31.8 | 21.9 | 27.7 | 15.1 | 7.3 | 33.1 | 30.3 | 45.4 |  | 
O=C1CC(Cc2ccc(C(=O)NCCS)cc2)C(=O)N1 (centres undefined) | 21.7 | 38.6 | 31.4 | 42.6 | 39.6 | 42.2 | 35.9 | 31.1 | 34.8 | 42.8 | 34.2 | 51.2
